Laboratory results published in PubChem BioAssay AID488969 (Vanderbilt High Throughput Screening Facility, 2010).
Over roughly 110,000 compounds, “z-score” has its median near -0.1; the highest 2% begin near 2. This is one part of the list. The source made the active and inactive calls.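 The calls were made as follows: active = z-score in the third read window above 3 or below -3; inactive = the rest.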

target: Metabotropic glutamate receptor 8 (Rattus norvegicus) (UniProt P70579); experiment: mGluR8 Gi/Go-coupled signaling modulation – cell-based, rat, thallium flux, HTS, primary screen (AID 488969); conditions: HEK293 rat mGluR8, GIRK (G protein-gated inwardly rectifying potassium channel) thallium flux, FluoZin2; at 10 µM; stronger effect = higher value; submaximal glutamate (EC20) added with thallium
Chain of UniProt P70579 (P70579 whole entry, looked up): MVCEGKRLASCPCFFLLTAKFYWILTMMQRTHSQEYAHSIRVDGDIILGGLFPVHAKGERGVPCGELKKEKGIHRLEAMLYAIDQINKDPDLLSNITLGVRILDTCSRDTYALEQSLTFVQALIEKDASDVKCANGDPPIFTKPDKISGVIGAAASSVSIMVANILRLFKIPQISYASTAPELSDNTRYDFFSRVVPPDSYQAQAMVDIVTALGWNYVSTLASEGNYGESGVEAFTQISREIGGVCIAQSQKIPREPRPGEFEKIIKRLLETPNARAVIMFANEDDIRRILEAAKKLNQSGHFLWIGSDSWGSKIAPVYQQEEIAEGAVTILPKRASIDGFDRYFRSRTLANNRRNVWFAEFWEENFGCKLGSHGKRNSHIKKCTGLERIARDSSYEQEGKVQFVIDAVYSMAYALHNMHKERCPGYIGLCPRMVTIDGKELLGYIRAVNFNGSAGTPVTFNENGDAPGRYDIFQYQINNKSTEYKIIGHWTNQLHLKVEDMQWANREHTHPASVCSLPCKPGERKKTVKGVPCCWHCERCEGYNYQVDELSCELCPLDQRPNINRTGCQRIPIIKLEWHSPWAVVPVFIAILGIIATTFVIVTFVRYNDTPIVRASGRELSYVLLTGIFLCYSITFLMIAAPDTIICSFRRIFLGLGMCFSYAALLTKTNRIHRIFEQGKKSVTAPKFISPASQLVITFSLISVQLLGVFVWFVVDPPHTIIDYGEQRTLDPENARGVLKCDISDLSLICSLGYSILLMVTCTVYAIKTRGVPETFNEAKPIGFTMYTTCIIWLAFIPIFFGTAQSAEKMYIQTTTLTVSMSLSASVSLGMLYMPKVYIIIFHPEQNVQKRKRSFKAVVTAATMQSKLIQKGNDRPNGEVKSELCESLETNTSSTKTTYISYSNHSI

Compound | z-score
Cc1c(C(=O)NCc2ccccc2)cnn1-c1ccccc1 | 1.21
O=C(O)C1CCCCC1C(=O)NCCc1cccc(Cl)c1 (stereo unspecified) | 1.2
CCOC(=O)C1C(=O)C=C(c2cccc(NS(C)(=O)=O)c2)CC1c1ccco1 (stereo unspecified) | -0.737
CCN(c1cccc(C)c1)S(=O)(=O)c1c(C)[nH]c(=O)[nH]c1=O | -0.335
Cc1ccc(C)c(NC(=O)c2cc(-c3ccccc3)nn2-c2ccccc2)c1 | 2.08
Cc1cc(NC(=O)c2cc(-c3cccc(Cl)c3)on2)no1 | -0.0393
COCCn1nnnc1CN(CCc1ccccc1)Cc1cc2cc(OC)ccc2[nH]c1=O | -0.649
Cc1ccc(-n2c(C)nn(-c3ncc(C(F)(F)F)cc3Cl)c2=O)cc1 | -0.113
Cc1c(Cl)cccc1NC(=S)NC(=O)CCN1C(=O)c2ccccc2C1=O | 0.227
C=CCn1c(-c2ccccc2)nc(=S)c2c1CC(C)(C)OC2 | 0.225
COc1ccccc1NC(=S)N(Cc1ccccc1)Cc1ccccn1 | -1.17
Cc1ccc(Cc2cnc(N)s2)o1 | -0.129
CCC(NC(=O)c1ccccc1NC(=O)c1ccccc1)C(=O)NNC(=O)CSc1nc2ccccc2o1 (stereo unspecified) | 0.033
COc1cccc(N2CCN(Cc3nc4ccccc4c(=O)[nH]3)CC2)c1 | 0.494
CCc1nc(SCC(=O)NCCc2ccc(OC)c(OC)c2)c2c(=O)n(C)c(=O)n(C)c2n1 | 0.573
Oc1ccc(-n2cnnn2)cc1 | 0.0713
O=C(CSc1nnc(-c2ccc(Cl)s2)o1)N1CCCc2ccccc21 | -0.616
COc1ccc(CC(=O)O/N=C(\N)c2cccc([N+](=O)[O-])c2)cc1 | -0.132
CCOc1ccc(Nc2oc(-c3cccs3)nc2C#N)cc1 | -0.22
O=C(NCc1n[nH]c(=S)n1-c1ccccc1)c1ccc(S(=O)(=O)N2CCOCC2)cc1 | -0.00498
N#CCC1c2ccccc2CCN1C(=O)Nc1ccc(Cl)cc1 (stereo unspecified) | -1.47
Cc1occc1C(=O)Nc1ccc(S(=O)(=O)N2CCN(C)CC2)cc1 | -0.575
Cc1ccc(NC(=O)Cn2cnc3c(=O)n(C)c(=O)n(C)c32)c(C)c1 | 0.389

Compound | z-score
CCOC(=O)C1CCN(c2c(NC3CCCCCCC3)c(=O)c2=O)CC1 | 0.385
CNS(=O)(=O)c1cccc2cccnc12 | -0.0836
CC1(C)CC(=O)C(C(c2ccco2)C2C(=O)CC(C)(C)CC2=O)C(=O)C1 | 0.141
O=C(Nc1cccc(Cl)c1)Nc1nccs1 | active: 10.2
Cc1cc(C)cc(NC(=S)NCCSc2ccc(Cl)cc2)c1 | -0.14
COc1ccc(CN2C(=O)CC(Cc3cc(C)cc(C)c3)C2=O)cc1OC (stereo unspecified) | -0.385
COc1ccccc1-c1coc2cc(OCC(=O)OCc3ccccc3)ccc2c1=O | -1.07
COc1cccc(NC(=O)CCC(=O)Nc2cccc(OC)c2)c1 | -0.279
CCOCC(=O)Nc1nnc(C)s1 | 1.02
CC1CN(S(=O)(=O)c2cccc(C(=O)OCC(=O)c3cccs3)c2)CC(C)O1 (stereo unspecified) | -0.116
O=C(Cn1cc2c(n1)CCCCC2)NC1CCN(Cc2ccccc2)CC1 | -0.259
Cc1ccccc1N(CC(=O)NCCSCc1ccco1)S(C)(=O)=O | 0.0968
CCn1cc(/C=N/NC(=O)c2cc3c(ccc4ccccc43)o2)c2ccccc21 | 0.446
OCCN(CCO)CC(O)COCCC12CC3CC(CC(C3)C1)C2 (stereo unspecified) | 0.239
COc1ccccc1CN(Cc1nc2ccccc2c(=O)[nH]1)C(=O)Nc1ccc(C)cc1 | -0.132
CCOC(=O)CSc1nc2cc3c(cc2cc1CC)OCCO3 | -0.224
CC1(N2CCOCC2)C(=O)c2ccccc2C1=O | -0.0718
CC(Sc1nc2ccccc2[nH]1)C(=O)O (stereo unspecified) | -0.0631
Cc1cc(Nc2ccccc2N2CCOCC2)n2ncnc2n1 | 0.119
O=C(c1cc2sccc2n1Cc1ccccc1)N1CCc2ccccc21 | -1.27
CCN(C(=O)Cc1ccccc1OC)c1nnc(-c2ccncc2)s1 | -0.0685
Cc1ccnc(N2C(=O)c3ccccc3C2O)c1 (stereo unspecified) | -0.243
O=C(c1ccco1)c1n[nH]nc1-c1ccccc1 | -0.0134

Compound | z-score
COc1ccc(C(C#N)N2N=C(c3ccccc3)CC2c2ccccc2)cc1OC (stereo unspecified) | 0.0225
O=C(c1cc(-c2ccccc2)on1)N1CCCC1 | active: 3.32
CCOC(=O)c1c(C)[nH]c(C=Nc2ccccc2)c1O | 0.401
COc1cc(C2C(C#N)=C(N)Oc3cc(C)oc(=O)c32)cc2c1OCO2 (stereo unspecified) | 0.102
CCOc1ccc(/C=N/Nc2cc(=O)n(C)c(=O)n2C)cc1 | -0.091
Cc1ccccc1/C=N/N1CCN(c2ccccc2)CC1 | -0.218
CN(C)CC1CCCCC1C1(O)c2ccccc2CSc2sccc21 (stereo unspecified) | 1.47
FC(F)(F)c1nc(-c2cccnc2)ncc1-c1nnnn1-c1ccccc1 | -0.145
O=C(CSc1ncccn1)n1c2c(c3ccccc31)CCCC2 | -0.0215
O=C(COC(=O)C12CC3CC(CC(O)(C3)C1)C2)N1CCN(S(=O)(=O)c2ccc(Cl)cc2)CC1 | -0.0539
C=CCc1cccc(Cl)c1OCCON1C(=O)CCC1=O | -0.121
CCc1ccccc1NC(=O)COc1ccc2oc(-c3ccc(OC)cc3)cc(=O)c2c1 | 0.154
Nc1cccc(-n2nncc2-c2ccccc2)c1 | -0.207
C=CCn1c(NC(C)c2cc(Cl)ccc2O)nc2ccccc21 (stereo unspecified) | 0.902
CC(=O)N1CCc2cc(Br)cc(S(=O)(=O)NCCCN3CCCC(C)C3)c21 (stereo unspecified) | 0.264
CC(C)(C#N)Nc1ccccc1 | -0.145
CCOC(=O)C1CCCN(c2c(NCC3CCCN3CC)c(=O)c2=O)C1 (stereo unspecified) | -0.227
NS(=O)(=O)c1ccc(NCc2ccccc2OCc2ccccc2F)cc1 | -0.136
O=C(CCCn1c(=S)[nH]c2cc3c(cc2c1=O)OCO3)N1CCN(c2ccccn2)CC1 | -0.0689
CC1=C(C(=O)Nc2ccccc2)C(c2ccc(C)o2)n2c(s/c(=C/c3ccccc3)c2=O)=N1 (stereo unspecified) | 0.641
COc1ccc(-c2cc(C(F)(F)F)nc(SCC(=O)NCc3cccs3)n2)cc1OC | 0.0226
COc1ccccc1N1CCN(C2CCN(S(=O)(=O)c3ccc4ccccc4c3)CC2)CC1 | 0.0593
COc1ccc(/C=N/NC(=O)CN2CCSCC2)cc1C | 1.85

Compound | z-score
CC(C)C(=O)Nc1ccc(C(=O)NNC(=O)NC2CCCCC2)cc1 | -0.0237
COc1ccc(C(C)=O)cc1CSc1nnc(Nc2ccccc2C)s1 | -0.517
COC(=O)c1ccc(COc2ccccc2/C=C(\C#N)C(=O)Nc2c(C)cc(C)cc2C)cc1 | -0.309
COc1ccc(NC(=O)C2CCCN2S(=O)(=O)c2ccc3c(c2)CCC(=O)N3)c(OC)c1 (stereo unspecified) | -0.178
CN(C)C(=O)N1CCCC(C(=O)NCc2ccccc2)C1 (stereo unspecified) | -0.341
CC(C)CNC(=O)COc1ccccc1[N+](=O)[O-] | -0.162
CNS(=O)(=O)c1cnccc1N1CCN(c2cccc(C(F)(F)F)c2)CC1 | 0.784
CCc1nc(N2CCC(C)CC2)c2oc3ccccc3c2n1 | 0.225
COc1ccc(-c2cc3nc(C)cc(N4CC(C)CC(C)C4)n3n2)cc1 (stereo unspecified) | 0.175
Cc1ccc(Cn2nnc3c(=O)n(CC(=O)NCc4ccc5c(c4)OCO5)cnc32)cc1 | -0.756
CC(C)c1ccc(OCC(=O)N(Cc2ccccc2)c2ccccn2)cc1 | -0.499
CC(=O)N1c2ccccc2N(Cc2ccc(C)cc2C)C(=O)C1(C)C | -1.56
O=C(CNC(=O)Cn1ccc2ccccc2c1=O)NCCCN1CCN(c2cccc(Cl)c2)CC1 | 0.155
CC(C)P(=O)(Cc1cccc(C#N)c1)C(C)C | -0.151
CCCCCCn1c(SCC(=O)Nc2cc(C)on2)nc2ccccc2c1=O | -1.23
COc1ccc(-n2nc(C(=O)NCC(=O)Nc3ccccn3)c3ccccc3c2=O)cc1 | -0.21
COc1ccccc1-c1cc(C(F)(F)F)nc(S(=O)(=O)CCCC(=O)Nc2cc(C)on2)n1 | 0.601
CCc1ccc(N2CC(C(=O)N/N=C/c3cccc([N+](=O)[O-])c3)CC2=O)cc1 (stereo unspecified) | -0.401
CCOc1ccccc1OCC(=O)Nc1ccc(S(=O)(=O)Nc2ncccn2)cc1 | -4.8e-05
CCN(c1ccc(OCC(=O)OCC(=O)Nc2ccc(F)c(F)c2F)cc1)S(=O)(=O)c1ccccc1 | -0.229
Cn1cnc([N+](=O)[O-])c1Oc1ccc2ccccc2c1 | 0.154
CN1CCN(c2ccc([N+](=O)[O-])cc2NC(=O)c2ccccc2Cl)CC1 | -0.38
Cc1nonc1NC(=O)CSc1nnc(-c2ccoc2C)n1-c1cccc(Cl)c1 | -2.81

Compound | z-score
Cc1noc(C)c1S(=O)(=O)N1CCN(c2ccccc2)CC1 | -0.073
Cc1cccc(NC(=O)CCC(=O)NCCO)c1 | 0.483
CCn1c(SCC(=O)N2CCCC2)nc2c1c(=O)n(C)c(=O)n2C | -0.146
Cc1nn(C)cc1NC(=O)CCSc1nc(-c2ccco2)cc(C(F)(F)F)n1 | -0.539
O=C(CSc1nc2cc(Cl)ccc2s1)NC1CCCc2ccccc21 (stereo unspecified) | -0.115
O=C(Nc1ccccc1)N(CCCN1CCOCC1)Cc1ccccc1F | 0.307
O=C(CSc1nc2ccccc2[nH]1)c1ccc(Cl)s1 | 0.508
O=c1oc2ccccc2cc1-c1nc2c(s1)CCCC2 | 0.248
COCCn1c(C)cc(C(=O)CSc2nc3nc(C)cc(C)n3n2)c1C | -0.117
COc1ccc(C(=O)NCc2cccnc2)cc1S(=O)(=O)N1CCOCC1 | 0.714
CCN(CC)CCCOC(=O)C1(c2ccccc2)CCCC1 | -0.296
COc1ccccc1C1C(C(N)=O)=C(C)Nc2nc(-c3ccccc3Cl)nn21 (stereo unspecified) | 0.966
Cc1[nH]c2ccccc2c1C(=O)CSc1ncn[nH]1 | 0.379
Cc1cc(C)cc(NC(=O)N2CCC(c3nc4ccccc4o3)CC2)c1 | -0.199
COC(=O)c1sc(N)nc1C(C)(C)C | -0.167
Cc1cc(=O)[nH]c(SCC(=O)Nc2ccc(Cl)cn2)n1 | -0.129
Cc1sc2nc(CN3CCOCC3)nc(NCCc3ccccc3)c2c1C | -0.888
COc1ccc(C(=O)NC(C)c2cc(OC)c(OC)cc2Br)cc1 (stereo unspecified) | 0.0958
O=C(OCCCN=C1NS(=O)(=O)c2ccccc21)c1ccc(F)cc1 | 0.0302
